Each structure is given as a SMILES string. The campaign covered roughly 310,000 compounds. About 14,000 (4.5%) showed an effect of 50% or more. Effects have a minus sign here. Some of the results follow.
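Note: peak tail current of the secondary pulse compared with the same well before compound.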

The target of the assay is human ether-à-go-go-related gene (hERG) potassium channel (human, UniProt Q12809). Nature of the assay: primary screen, population patch clamp on CHO cells stably expressing hERG.
Chain of human ether-à-go-go-related gene (hERG) potassium channel (Q12809 whole entry, looked up): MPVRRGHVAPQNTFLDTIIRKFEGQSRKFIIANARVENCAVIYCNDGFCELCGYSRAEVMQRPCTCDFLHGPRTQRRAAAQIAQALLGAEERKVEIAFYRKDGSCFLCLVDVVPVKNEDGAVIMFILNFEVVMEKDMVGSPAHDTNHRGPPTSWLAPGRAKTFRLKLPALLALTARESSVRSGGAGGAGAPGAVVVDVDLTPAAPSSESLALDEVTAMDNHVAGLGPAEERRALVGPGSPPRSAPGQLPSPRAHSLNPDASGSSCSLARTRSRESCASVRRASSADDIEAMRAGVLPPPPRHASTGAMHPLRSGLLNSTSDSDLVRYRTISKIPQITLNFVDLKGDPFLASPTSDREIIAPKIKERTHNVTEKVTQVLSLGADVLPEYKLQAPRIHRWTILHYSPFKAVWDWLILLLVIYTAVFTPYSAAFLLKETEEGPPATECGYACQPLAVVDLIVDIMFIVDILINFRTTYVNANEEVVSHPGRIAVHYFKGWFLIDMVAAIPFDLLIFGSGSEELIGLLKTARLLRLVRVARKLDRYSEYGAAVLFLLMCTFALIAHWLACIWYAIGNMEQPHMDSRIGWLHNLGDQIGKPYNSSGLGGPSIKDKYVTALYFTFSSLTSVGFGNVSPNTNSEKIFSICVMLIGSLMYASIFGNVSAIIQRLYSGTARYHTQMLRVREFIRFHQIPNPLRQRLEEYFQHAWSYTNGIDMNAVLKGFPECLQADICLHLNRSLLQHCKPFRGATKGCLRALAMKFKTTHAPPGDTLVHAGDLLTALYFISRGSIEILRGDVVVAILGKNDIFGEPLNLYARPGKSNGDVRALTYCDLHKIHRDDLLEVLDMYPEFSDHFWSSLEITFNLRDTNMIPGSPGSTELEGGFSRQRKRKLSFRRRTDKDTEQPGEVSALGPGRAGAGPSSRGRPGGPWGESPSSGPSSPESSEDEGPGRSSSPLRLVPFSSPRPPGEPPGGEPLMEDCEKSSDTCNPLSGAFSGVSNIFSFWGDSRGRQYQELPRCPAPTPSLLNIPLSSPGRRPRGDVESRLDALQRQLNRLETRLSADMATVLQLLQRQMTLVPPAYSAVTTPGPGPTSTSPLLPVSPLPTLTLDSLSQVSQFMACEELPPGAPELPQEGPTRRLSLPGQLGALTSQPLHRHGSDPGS
Take `Cc1ccc(N(CC(O)CN2CCCCC2)S(=O)(=O)c2ccc(C)cc2)cc1` (stereo not shown): the “hERG current change (%, negative = inhibition) at 10uM” value was determined as 13.8%. In the case of `COc1ccc(NC(=O)c2cnc(C)cn2)cc1-n1cnnn1` it was 7.84%. Consider `CC(=O)Nc1cccc(NC(=O)C(=O)NCC(c2ccco2)N2CCc3ccccc32)c1` (stereo not shown), for which the “hERG current change (%, negative = inhibition) at 10uM” value is -8.78%. Under `CCn1c(CSCc2c(Cl)cccc2Cl)n[nH]c1=S` stands 21.6%; under `C[n+]1ccc(C(=O)Nc2ccccc2Cl)cc1.[I-]`, 33.8%; under `CC(=O)n1nc(-c2cccc(C)c2)nc1SCC(=O)Nc1ccccc1`, -0.298%. Under `Nc1ccc(Br)cc1Br` stands 14.2%; under `Fc1cnc(N2CCOCC2)nc1NCc1ccccc1`, 10.6%. In the case of `CCCCCCCn1c(=O)c(C(=O)Nc2cnccn2)c(O)c2ccccc21` it was 4.21%. As to `CCSc1cc(N2CCCC2)nc(-c2ccc(Cl)cc2)n1`, the “hERG current change (%, negative = inhibition) at 10uM” value is recorded as 22.8%.

`S=C(NCc1ccccc1)NCc1ccc(Cl)cc1`: the “hERG current change (%, negative = inhibition) at 10uM” value is listed as 12.6%. In the case of `CS(=O)(=O)N1CCC(Oc2ccccc2C(=O)NCCCc2cccnc2)CC1` it was -23.3%. For the compound `CC(=O)Oc1ccc(/C=C(\NC(=O)c2cccc(Br)c2)C(=O)Nc2ccc(C(=O)O)cc2)cc1`, the “hERG current change (%, negative = inhibition) at 10uM” value is 6.07%. Under `CC(C)(C)OC(=O)NC(CC(=O)OCc1ccccc1)C(=O)O` (stereo not shown) stands 10.1%; under `Cc1ccc(C(=O)Nc2ccncc2)c(C)c1`, -0.621%. In the case of `CCCc1cc(C(=O)N/N=C/c2ccc(C)o2)c2ccccc2n1` it was -9.35%. Under `Cc1nn(CC(=O)NCCCN2CCC(Cc3ccccc3)CC2)c(=O)c2cc(-c3ccccc3)nn12` stands -77%; under `CN1CCN(C(CNS(=O)(=O)c2ccc(Cl)cc2)c2cccnc2)CC1` (stereo not shown), -55.6%; under `CC(=O)Nc1ccc(S(=O)(=O)NCC(=O)NNC(=O)COc2ccccc2Cl)cc1`, 5.59%. Consider `N#Cc1cnn2cc(CCN3CCOCC3)c(-c3ccc(F)cc3)nc12`, for which the “hERG current change (%, negative = inhibition) at 10uM” value was -1.87%.

On to `CN(C)CCN(C(=O)c1ccc(C(=O)c2ccccc2)cc1)c1nc2cc3c(cc2s1)OCCO3.Cl`, for which the “hERG current change (%, negative = inhibition) at 10uM” value was -12.4%. Under `COc1ccc(N=Nc2nc3ccc(Br)cc3n2C)cc1` stands 10.5%.

Consider `CN(C)CCN(CC1CCCN(Cc2ccccc2F)C1)C(=O)c1ccc(Cl)cc1` (stereo not shown), for which the “hERG current change (%, negative = inhibition) at 10uM” value is listed as -14%. With `S=c1[nH]nc([C@@H]2C[C@H]2c2ccccc2)n1-c1ccccc1`, the “hERG current change (%, negative = inhibition) at 10uM” value was 4.34%. Under `COCCN(Cc1nc2ccccc2c(=O)[nH]1)C(=O)c1cccc(S(=O)(=O)N2CCCC2)c1` stands -16.3%; under `CCOC(=O)C1=C(C)N(C)C(=O)NC1c1c(C)nn(-c2ccc(C)cc2)c1Cl` (stereo not shown), -13.8%; under `CCOC(=O)C(=CNc1nc(-c2ccc3ccccc3c2)cs1)C(=O)OCC`, 16%. Under `C/C(=N\NC(=O)Cc1c[nH]c2ccccc12)c1ccc2ccccc2c1` stands 15.8%; under `CCOc1ccc2nc(NC(=O)C(CCSC)NS(=O)(=O)c3cccs3)sc2c1` (stereo not shown), -3.06%. In the case of `CC(=O)N1c2ccc(S(=O)(=O)N3CCCC(C(=O)Nc4cccc(F)c4)C3)cc2CC1C` (stereo not shown) it was -22.7%; in that of `NC(=O)[C@@H]1CCCN1Cc1c(C(=O)N2CCc3ccccc3C2)nc2ccc(Cl)cn12`, -9.37%; in that of `CC1(C)CC(=O)C=C(NCc2ccc(Cl)c(Cl)c2)C1`, -14.2%. `Cc1nnc(SCC(=O)NCCc2ccccc2)s1`: the “hERG current change (%, negative = inhibition) at 10uM” value turned out to be 5.36%.

Regarding `COC(=O)c1cn(CCC#N)nc1-c1ccc2ccccc2c1`, the “hERG current change (%, negative = inhibition) at 10uM” value was -5.82%. As for `CCCCOc1ccc(C(=O)OCC(=O)Nc2cc(C)c(C)cc2[N+](=O)[O-])cc1`, the “hERG current change (%, negative = inhibition) at 10uM” value is reported as -8.54%. On to `NC(=O)C1=C[C@@H](C2CCCCC2)C[C@@H](OCCCCO)O1`, for which the “hERG current change (%, negative = inhibition) at 10uM” value came out at 4.05%. In the case of `O=C(N/N=C/c1ccc([N+](=O)[O-])o1)c1ccccc1-n1cccc1` it was -12%.

On to `O=C(Cn1c(=O)n(CC2CCCO2)c(=O)c2ccccc21)N1CCN(c2ccccc2)CC1` (stereo not shown), for which the “hERG current change (%, negative = inhibition) at 10uM” value was -21.8%. Under `COc1ccc(O)c(C(=O)c2coc(=N)c(C(=O)Nc3ccc(SC(F)F)cc3)c2)c1` stands -69.9%; under `Cc1ccc(NC(=S)/N=C(\N)Nc2nc(C)c3ccccc3n2)cc1C`, -10.6%; under `O=C(O)CC(NC(=O)C12CC3CC(CC(C3)C1)C2)c1cccc([N+](=O)[O-])c1` (stereo not shown), 12.9%. In the case of `CCOC(=O)C1=C(c2ccccc2)NC(SCC(=O)NC2CCCCC2)=C(C#N)C1c1ccco1` (stereo not shown) it was -1.35%. Under `O=C(CSc1nnc(CNC(=O)c2ccc(F)cc2)o1)Nc1ccc2c(c1)OCCO2` stands 21.6%; under `CCCC(=O)c1cc2ccccc2oc1=O`, -8.47%. As to `CCC1CCCCN1C(=O)c1cc2cc(Br)ccc2oc1=O` (stereo not shown), the “hERG current change (%, negative = inhibition) at 10uM” value was -25.8%. Under `COC(=O)c1ccc(CSc2nnnn2-c2ccccc2)o1` stands -6.08%; under `Cc1ccc(N(C)C(=O)N2CCN(S(=O)(=O)c3c(C)cc(C)cc3C)CC2)cc1`, -31.8%; under `CN(C)C(=O)Oc1ccc(OC(=O)N(C)C)cc1`, 2.39%. In the case of `CCC(=O)NC(=S)N1CCN(c2ccc([N+](=O)[O-])cc2Cl)CC1` it was -26.4%; in that of `COc1cc(N2C(=O)NC3CC2(C)Oc2ccccc23)cc(OC)c1OC` (stereo not shown), 18.3%. As to `CC(=O)c1cccc(NC(=S)N2CCCC2)c1`, the “hERG current change (%, negative = inhibition) at 10uM” value is 9.57%.

For `COc1cccc2cc(C(=O)CC3(O)C(=O)N(Cc4ccccc4)c4ccccc43)c(=O)oc12` (stereo not shown), the “hERG current change (%, negative = inhibition) at 10uM” value stood at 18.8%. Consider `CCCSc1ncnc2c1oc1ccccc12`, for which the “hERG current change (%, negative = inhibition) at 10uM” value was -5.24%.

`CS(=O)(=O)N(CC(=O)N/N=C/c1cccs1)c1cccc(Cl)c1Cl`: the “hERG current change (%, negative = inhibition) at 10uM” value is on record as -22.3%. In the case of `COc1ccc(-c2nnc(NC(=O)CS(=O)(=O)c3ccc(F)cc3)o2)c(OC)c1` it was 5.09%. In the case of `Cc1ccc(CNC(=O)CN(CCc2ccccc2)S(C)(=O)=O)cc1` it was -10.9%; in that of `CCC1(c2ccccc2)NC(=O)N(CC(=O)Nc2ccccc2C(=O)N2CCCCC2)C1=O` (stereo not shown), -0.337%; in that of `S=C(NCc1ccc(Cl)cc1)Nc1ccccc1`, -20.8%. Consider `Cc1sc(NC(=O)CN(Cc2ccccc2)C(=O)C2CC2)c(C(N)=O)c1C`, for which the “hERG current change (%, negative = inhibition) at 10uM” value was determined as 30.8%. On to `CC1=C(C(=O)OC2CCCCC2)C(c2cccnc2)n2ncnc2N1` (stereo not shown), for which the “hERG current change (%, negative = inhibition) at 10uM” value was found to be 6.27%.

Take `Cc1ccc(N2CCN(S(=O)(=O)N3CCCCC3)CC2)c(C)c1`: the “hERG current change (%, negative = inhibition) at 10uM” value came to 13%. `C/C=C/c1ccc(OCCCCN2CCC(C)CC2)c(OC)c1`: the “hERG current change (%, negative = inhibition) at 10uM” value is -68.1%. Under `COc1cccc(C2Nc3ccccc3NC3=C2C(=O)CC(C)(C)C3)c1OC` (stereo not shown) stands 9.83%. In the case of `Cc1cc(NC(=O)c2ccc3nc(C)sc3c2)no1`, the “hERG current change (%, negative = inhibition) at 10uM” value is listed as -1.41%.

Turning to `O=C(CC1C(=O)NCCN1Cc1cccc(Oc2ccccc2)c1)NCCc1cnccn1` (stereo not shown), the “hERG current change (%, negative = inhibition) at 10uM” value is on record as 14.8%.

For `COC(=O)c1ccccc1OCCOc1ccccc1C(=O)OC`, the “hERG current change (%, negative = inhibition) at 10uM” value is -8.08%. In the case of `COc1ccc(C(=O)Oc2ccc(/C=N/NC(=O)c3ccccc3OC)cc2[N+](=O)[O-])cc1`, the “hERG current change (%, negative = inhibition) at 10uM” value stood at 7.59%.

For `O=C(Cn1[nH]c(=O)c2ccccc2c1=O)OCC(=O)N1CCc2ccccc2C1`, the “hERG current change (%, negative = inhibition) at 10uM” value is recorded as -17.4%. Under `Cc1cccc(C)c1OCc1cc(C(=O)N2CCNC(=O)C2)no1` stands -1.59%; under `COc1ccc(N2C(=O)CCC2(C(N)=O)c2ccccc2)cc1` (stereo not shown), 17.8%; under `COC(=O)c1sc2ccccc2c1NC(=O)c1ccc(S(=O)(=O)N2CCCC(C)C2)cc1` (stereo not shown), -9.46%.

Turning to `Cc1cccc(NC(=O)c2ccc3ccccc3n2)n1`, the “hERG current change (%, negative = inhibition) at 10uM” value is listed as -4.54%. Under `COc1ccc(-c2cc(C(=O)Nc3cccnc3Cl)no2)cc1` stands 21.9%; under `COc1cnn(-c2cccc(C)c2)c(=O)c1Cl`, 17.6%. Under `COc1cccc(NC(=O)CN(C)C(=O)C23CC4CC(CC(Cl)(C4)C2)C3)c1` stands -15.1%. In the case of `CC(C)C(c1nnnn1Cc1ccccc1)N1CCN(Cc2ccc3c(c2)OCO3)CC1` (stereo not shown) it was -52%; in that of `CC(=O)Nc1c(F)c(F)c(F)c(F)c1F`, 6.66%; in that of `CC1Oc2ccccc2N(CC(=O)N2CCCCCC2)C1=O` (stereo not shown), 12%. With `CN(Cc1ccccc1)S(=O)(=O)c1ccc2c(c1)n(C)c(=O)n2C`, the “hERG current change (%, negative = inhibition) at 10uM” value was -9.76%. Under `CCCCNc1c(-c2ccc(SC3CCCCC3)c(OC)c2)nc2ccc(Cl)cn12.O=C(O)C(F)(F)F` stands 7.39%. In the case of `C(=N/N1CCN(c2ccccc2)CC1)/c1ccncc1` it was -8.37%; in that of `OC(CNCc1ccccc1)COc1ccccc1` (stereo not shown), -11.9%; in that of `Cn1nnnc1Sc1ncnc2scc(-c3ccccc3Cl)c12`, -24.4%. In the case of `CCOC(=O)c1sc(NC(=O)c2ccco2)c(C#N)c1C` it was 20.4%. With `COc1ccc(C(C)=O)cc1CSc1nc2ccccc2o1`, the “hERG current change (%, negative = inhibition) at 10uM” value turned out to be 14%. In the case of `CCC(=O)N1CCC2(CC1)Oc1ccc(Cl)cc1C(=O)C21CC(c2ccccc2)=NO1` (stereo not shown) it was 5.79%; in that of `CCN(CC)C(=S)NC(=O)c1ccc(Cl)cc1Cl`, 4.13%; in that of `Cc1ccc(NC(=O)c2ccc3ccccc3n2)nc1`, -9.27%.

(Values after article PMC4336329 (PLoS ONE, 2015).)
